Reference: a compilation of properties of binary mixtures (doi:10.1016/j.jct.2017.01.014)
Some of these densities may be calculated back from excess volumes.

Assay: xn = mol fraction of the nth substance listed
Conditions: 100 kPa

CCCC[n+]1ccn(C)c1.O=S(=O)([N-]S(=O)(=O)C(F)(F)F)C(F)(F)F + C=CN1CCCC1=O
x2 = 0
Conditions	mass density [kg/m3]
298.15 K	1433.7
303.15 K	1429
308.15 K	1424.2
313.15 K	1419.4
318.15 K	1414.6
323.15 K	1409.9

C=CN1CCCC1=O + CCCC[n+]1ccn(C)c1.O=S(=O)([N-]S(=O)(=O)C(F)(F)F)C(F)(F)F
mass density [kg/m3]
Conditions	x1 = 0.1377	x1 = 0.2099	x1 = 0.3148	x1 = 0.4117	x1 = 0.5061	x1 = 0.6078	x1 = 0.7032	x1 = 0.79	x1 = 0.8989	x1 = 1
298.15 K	1412.3	1399.2	1377.7	1354.2	1327.2	1292.1	1251.6	1206.2	1132.7	–
303.15 K	1407.5	1394.5	1373	1349.5	1322.5	1287.4	1247	1201.6	1128.2	1035
308.15 K	1402.8	–	–	1344.8	1317.8	1282.7	1242.3	1197	1123.6	1030.5
313.15 K	1398	–	1363.5	1340	–	1278	1237.7	1192.4	1119.1	1026.1
318.15 K	–	1380.3	–	1335.3	1308.4	1273.4	1233	1187.8	1114.5	–
323.15 K	1388.5	–	–	1330.6	1303.7	1268.7	1228.4	1183.2	1110	1017.3
